The other results are listed elsewhere or left out. These are noisy estimates, calculated here from bound and input reads.
What follows are sequences tested against T1, Pho4 (S. cerevisiae) (UniProt P07270) (assay: relative binding free energy (BET-seq); higher = weaker binding). Conditions: reference: library average.
T1 sequence: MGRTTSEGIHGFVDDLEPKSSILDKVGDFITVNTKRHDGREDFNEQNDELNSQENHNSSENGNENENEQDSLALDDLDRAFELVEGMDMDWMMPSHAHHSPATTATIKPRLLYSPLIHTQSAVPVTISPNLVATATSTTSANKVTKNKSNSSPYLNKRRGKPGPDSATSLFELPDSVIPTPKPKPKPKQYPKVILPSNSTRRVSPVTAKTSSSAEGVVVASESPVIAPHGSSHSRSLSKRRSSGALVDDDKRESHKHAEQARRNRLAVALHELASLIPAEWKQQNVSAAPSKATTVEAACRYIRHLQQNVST
TTGTTCACGTGTAGTA was tested, and the “relative binding free energy” value was 0.962 kJ/mol. For CAGTTCACGTGCGGTG, the “relative binding free energy” value was 1.46 kJ/mol. In the case of ATTTTCACGTGGCATG, the “relative binding free energy” value was 0.544 kJ/mol. TATATCACGTGGAGGC was tested, and the “relative binding free energy” value was 0.669 kJ/mol. CGGGTCACGTGCGGTT was tested, and the “relative binding free energy” value was 0.167 kJ/mol. With AGATTCACGTGTAGCT the “relative binding free energy” value was 1.09 kJ/mol. GGAGACACGTGGGAGA was tested, and the “relative binding free energy” value was 0.46 kJ/mol. For GGAGACACGTGAGTGA, the “relative binding free energy” value was 0.669 kJ/mol. TTTCTCACGTGGAATG was tested, and the “relative binding free energy” value was 1.63 kJ/mol. With TCTTACACGTGGAGAG the “relative binding free energy” value was 1.46 kJ/mol. In the case of TGTTTCACGTGCGTGT, the “relative binding free energy” value was 0.795 kJ/mol. For TGTGTCACGTGTTGAC, the “relative binding free energy” value was 0 kJ/mol. With AGTGACACGTGGGAGC the “relative binding free energy” value was -0.502 kJ/mol. For TTCGTCACGTGGTCGG, the “relative binding free energy” value was 0 kJ/mol. With TTAATCACGTGGTATC the “relative binding free energy” value was 0.0837 kJ/mol. In the case of TTTGGCACGTGAGATT, the “relative binding free energy” value was 1.26 kJ/mol. With GTTATCACGTGACTTG the “relative binding free energy” value was 1.51 kJ/mol. TGAATCACGTGATTGA was tested, and the “relative binding free energy” value was 1.26 kJ/mol. For AGGGCCACGTGGGGCT, the “relative binding free energy” value was -1.13 kJ/mol. AGGTTCACGTGAGTTC was tested, and the “relative binding free energy” value was 1.67 kJ/mol. With GTGTTCACGTGGCGTG the “relative binding free energy” value was 0.544 kJ/mol. For TAGATCACGTGGGAGG, the “relative binding free energy” value was 0.0837 kJ/mol. For AGAGGCACGTGCGGAG, the “relative binding free energy” value was -0.837 kJ/mol. For AGTTTCACGTGCGAAT, the “relative binding free energy” value was 1.21 kJ/mol. ATGGTCACGTGTAGTA was tested, and the “relative binding free energy” value was 0.711 kJ/mol. With TAGTGCACGTGTAGTG the “relative binding free energy” value was 0.0837 kJ/mol. For GCTTTCACGTGTCGGG, the “relative binding free energy” value was 1.38 kJ/mol. GTTAACACGTGGGCAG was tested, and the “relative binding free energy” value was -0.418 kJ/mol. In the case of CTAGACACGTGGGGCG, the “relative binding free energy” value was -0.753 kJ/mol. AGGTTCACGTGGGATA was tested, and the “relative binding free energy” value was 1 kJ/mol. For CTTGTCACGTGTTTGG, the “relative binding free energy” value was 0.418 kJ/mol. With TGGGTCACGTGTAACG the “relative binding free energy” value was 0.669 kJ/mol. For TTTCGCACGTGCGGTA, the “relative binding free energy” value was -0.126 kJ/mol. For GGGTCCACGTGGTAGG, the “relative binding free energy” value was 0.544 kJ/mol. With TGTGGCACGTGAGTAA the “relative binding free energy” value was 1 kJ/mol. With AGGTTCACGTGTGGGG the “relative binding free energy” value was 1.46 kJ/mol. With AGGTGCACGTGGTTAC the “relative binding free energy” value was -0.377 kJ/mol. TTAAGCACGTGATGGG was tested, and the “relative binding free energy” value was 0.0837 kJ/mol. TTGTGCACGTGGTGAT was tested, and the “relative binding free energy” value was -0.251 kJ/mol. GTATGCACGTGTGTCA was tested, and the “relative binding free energy” value was 0.92 kJ/mol. In the case of TGGTGCACGTGGGGCC, the “relative binding free energy” value was -0.711 kJ/mol. In the case of CTATTCACGTGATTGT, the “relative binding free energy” value was 1.05 kJ/mol. For GCGGACACGTGGGGTC, the “relative binding free energy” value was -0.167 kJ/mol. In the case of GGATCCACGTGTAGGT, the “relative binding free energy” value was 0.753 kJ/mol. For GTAGACACGTGATTTT, the “relative binding free energy” value was 0.293 kJ/mol. ATGGGCACGTGGCCGG was tested, and the “relative binding free energy” value was -0.962 kJ/mol. In the case of TTTCACACGTGTCGTT, the “relative binding free energy” value was 0.586 kJ/mol. TGCTGCACGTGAGAGT was tested, and the “relative binding free energy” value was 1 kJ/mol. TTTTACACGTGAAGTA was tested, and the “relative binding free energy” value was 1.84 kJ/mol. For GGTAGCACGTGTCTTT, the “relative binding free energy” value was 0.167 kJ/mol. In the case of CATAGCACGTGGCGGT, the “relative binding free energy” value was -0.377 kJ/mol. For AGGACCACGTGTGTGG, the “relative binding free energy” value was -0.418 kJ/mol. In the case of CTTGGCACGTGTGGTC, the “relative binding free energy” value was 0 kJ/mol. With GGCTGCACGTGCGATG the “relative binding free energy” value was 0.418 kJ/mol. For GAGCGCACGTGGGTTG, the “relative binding free energy” value was -0.544 kJ/mol. CTCGTCACGTGGTTAT was tested, and the “relative binding free energy” value was 0 kJ/mol. TGCTACACGTGGCGGG was tested, and the “relative binding free energy” value was -0.0837 kJ/mol. GGGTTCACGTGGCAAG was tested, and the “relative binding free energy” value was 1.17 kJ/mol. With TTTCTCACGTGCCGGT the “relative binding free energy” value was 1.42 kJ/mol. ATTGGCACGTGTGTTT was tested, and the “relative binding free energy” value was 0.293 kJ/mol. With TGAGTCACGTGGTGTA the “relative binding free energy” value was -0.167 kJ/mol. GGTCTCACGTGTCTTT was tested, and the “relative binding free energy” value was 1.21 kJ/mol. With TGACGCACGTGTGAGT the “relative binding free energy” value was 0.167 kJ/mol. For TGCGGCACGTGAGGCA, the “relative binding free energy” value was 0.209 kJ/mol. In the case of TGAGGCACGTGAAGCG, the “relative binding free energy” value was 0.711 kJ/mol. For GGAGTCACGTGAAGGG, the “relative binding free energy” value was 1.46 kJ/mol. For TGGTTCACGTGTAGAT, the “relative binding free energy” value was 1.59 kJ/mol. With AGAGGCACGTGGTAGT the “relative binding free energy” value was -0.795 kJ/mol. For GTCGGCACGTGCTTGG, the “relative binding free energy” value was -0.753 kJ/mol. CTGGTCACGTGACGGG was tested, and the “relative binding free energy” value was 0.544 kJ/mol. With ATGGTCACGTGACTTT the “relative binding free energy” value was 0.837 kJ/mol. With CAAGACACGTGGGGGT the “relative binding free energy” value was -0.293 kJ/mol. With TTAATCACGTGAAGAT the “relative binding free energy” value was 1.21 kJ/mol. For AATGGCACGTGTAATG, the “relative binding free energy” value was 0.418 kJ/mol. With TGAGACACGTGGGATT the “relative binding free energy” value was 0.0837 kJ/mol. With GGGAGCACGTGGGGCC the “relative binding free energy” value was -0.628 kJ/mol. In the case of ATTGGCACGTGAGGGT, the “relative binding free energy” value was 0.753 kJ/mol. With TTGGCCACGTGGTGCG the “relative binding free energy” value was -0.879 kJ/mol. TCGTACACGTGTATGG was tested, and the “relative binding free energy” value was 0 kJ/mol. With TGGTCCACGTGCAGTG the “relative binding free energy” value was 0.753 kJ/mol. TTGTGCACGTGCGCAG was tested, and the “relative binding free energy” value was -0.377 kJ/mol. For GGTTACACGTGTGGAA, the “relative binding free energy” value was 0.46 kJ/mol. In the case of TAGTTCACGTGCGTAG, the “relative binding free energy” value was 1.17 kJ/mol. TGGGTCACGTGTAACT was tested, and the “relative binding free energy” value was 1.21 kJ/mol. TGTATCACGTGAGAGT was tested, and the “relative binding free energy” value was 1.63 kJ/mol. With CGATGCACGTGTTATT the “relative binding free energy” value was 0.167 kJ/mol. With CGAGGCACGTGTTTAT the “relative binding free energy” value was -0.0837 kJ/mol. In the case of CAGGGCACGTGAGGGC, the “relative binding free energy” value was 0.335 kJ/mol. For TGTCACACGTGGTAAG, the “relative binding free energy” value was 0.335 kJ/mol. With GAGGACACGTGCGTTG the “relative binding free energy” value was 0.0837 kJ/mol. AATGTCACGTGCTTTT was tested, and the “relative binding free energy” value was 0.0837 kJ/mol. For TCGGTCACGTGAGGCA, the “relative binding free energy” value was 1.21 kJ/mol. For ATGGTCACGTGAGCGG, the “relative binding free energy” value was 0.293 kJ/mol. With GCGTTCACGTGAGTGT the “relative binding free energy” value was 1.51 kJ/mol. GGTGACACGTGGATTT was tested, and the “relative binding free energy” value was 1.21 kJ/mol. In the case of AGTCCCACGTGGGGTG, the “relative binding free energy” value was -1.13 kJ/mol. ATGTGCACGTGACGGG was tested, and the “relative binding free energy” value was 0.251 kJ/mol. AGTCGCACGTGGTGTT was tested, and the “relative binding free energy” value was -0.418 kJ/mol. For TGATTCACGTGTACTG, the “relative binding free energy” value was 1.05 kJ/mol. GGTGGCACGTGGATCG was tested, and the “relative binding free energy” value was -0.167 kJ/mol. With GGGGTCACGTGAGATT the “relative binding free energy” value was 1.72 kJ/mol. With TAACGCACGTGGGGAT the “relative binding free energy” value was -0.962 kJ/mol. For GGTCTCACGTGAAAGG, the “relative binding free energy” value was 2.64 kJ/mol. For TGAATCACGTGTAATG, the “relative binding free energy” value was 1.3 kJ/mol. In the case of GGTGTCACGTGATATA, the “relative binding free energy” value was 0.418 kJ/mol. In the case of TGGTCCACGTGTTATA, the “relative binding free energy” value was 0.753 kJ/mol. ATAATCACGTGGTTTT was tested, and the “relative binding free energy” value was 0.167 kJ/mol. GAGGGCACGTGATATT was tested, and the “relative binding free energy” value was 0.335 kJ/mol. With TAACTCACGTGGTGGG the “relative binding free energy” value was 0.837 kJ/mol. With CTTTACACGTGGTGGG the “relative binding free energy” value was 0.335 kJ/mol. For TGGATCACGTGAGTGA, the “relative binding free energy” value was 0.92 kJ/mol. With AATTCCACGTGAGAGT the “relative binding free energy” value was 1.59 kJ/mol. For AGTTGCACGTGTATTG, the “relative binding free energy” value was 0 kJ/mol. AGAGACACGTGATGGT was tested, and the “relative binding free energy” value was 0.126 kJ/mol. In the case of TTAAGCACGTGTGTCA, the “relative binding free energy” value was -0.377 kJ/mol.

From the BET-seq Pho4 binding data (Le et al. 2018)
